# Test results: ChEMBL document CHEMBL4888484, “Replenishing the malaria drug discovery pipeline: Screening and hit evaluation of the MMV Hit Generation Library 1 (HGL1) against asexual blood stage Plasmodium falciparum ,using a nano luciferase reporter read-out” (2022)
# The campaign covered roughly 150,000 compounds. About 540 (0.36%) showed an effect of 50% or more. This is one part of the list.
# Tested on: Plasmodium falciparum
# Experiment: Primary screen in NF54 nanoGlo assay, in single point, at 2uM, 72h; a lower Z score goes with more inhibition
# Assay type: functional, Erythrocyte
# Conditions: timepoint 72 hour
Compound,% Inhibition [%],Z score
Cc1cc(C)c(C(=O)NC(C)COC2CCOC2)c(C)c1 (stereo not given),-6,1.1
Cc1nc(N2CCC(C(=O)Nc3cc(F)ccc3F)CC2)c2c(C)c(C)oc2n1,-15,1.55
Cc1n[nH]c(CN2C[C@H]3CCC[C@@H](C2)N(C)C3)c1Cl,-19,2.42
CCN(CC)CC#C[C@H](C)OC(=O)c1cccc(-n2cccn2)n1,9,-1.14
O=C(Nc1ncccc1-c1ccccc1)c1ccccc1C(F)(F)F,-14,1.53
CCNC(=O)N(Cc1nc(CC)c(Cc2cccc(OC)c2)c(=O)[nH]1)Cc1ccco1,-2,0.29
COc1cc(CC(=O)N2CCN(c3cc(C)n4cnnc4n3)CC2)cc(OC)c1,0,-0.09
COc1ccc(CCC(=O)N(C)C)cc1F,-9,1.28
COc1ccc(NS(=O)(=O)c2c(C)sc(C)c2-c2onc(C)c2C)cc1,-6,1.05
COc1ccc(N/C(N)=N/c2nc(=O)c3c([nH]2)CCCC3)cc1,-13,1.76
C[C@H](OC(=O)CNC(=O)c1cccc(F)c1)C(=O)N1CCCCCC1,9,-1.42
CCc1cccc(NC(=O)N2CCN(c3nccs3)CC2)c1,-2,0.21
Cc1nccn1CCN(C)C[C@]1(c2ccccc2)CCOC1,-5,0.88
CC1=NN(c2ccc(NC(=O)OCC(F)(F)F)cn2)C(=O)C1,-1,0.14
O=S(=O)(C[C@H]1CC2(CCC2)CO1)NCc1nccn1C(F)F,-1,0.13
CCO[C@@H](C)c1nccn1CCCC#N,-4,0.66
COc1ccc(COCC(=O)N(C)c2cccnc2C)cn1,-18,2.3
CCc1oc2c(NC(=O)N3CCN(CCOCCO)CC3)cccc2c1C,-5,0.94
Cc1c(Cl)cc(C(=O)NC[C@H]2CN(S(C)(=O)=O)CCO2)cc1Cl,2,-0.34
CN(C)c1cc(C(=O)N[C@H](c2cccs2)C2(CO)CCC2)ccn1,2,-0.32
O=C(NCc1nnc(C2CCCO2)[nH]1)N1CCCC2CCCC21 (stereo not given),-1,0.2
O=C(NCc1ccco1)c1cc2n(n1)CCN(Cc1ccc(C(F)(F)F)cc1)C2=O,4,-0.62
NC(=NOCc1sccc1Cl)c1ccsc1,4,-0.45
O=C1C2CCC(c3ccccc3)CC2C(=O)N1c1ccc(Oc2ccc(Cl)cc2Cl)cc1 (stereo not given),-2,0.21
CCOc1ccc(NC(=O)Cn2c(N3CCOCC3)nc3cc(C)n(C)c3c2=O)cc1,-15,1.56
CCc1[nH]nc(NC(=O)c2cccc(-n3cccn3)n2)c1C,1,-0.12
O=C1CCC[C@@H]2CN(S(=O)(=O)Cc3ccccc3)C[C@@H]2N1,27,-3.07
Cc1nc2ccccn2c1CN(C)C(=O)c1cc(C#N)c[nH]1,-16,3.11

Compound,% Inhibition [%],Z score
Cc1ccccc1C(=O)N1CC[C@@H](c2cccs2)S(=O)(=O)CC1,-14,2.33
CC(=O)c1cccc(NC(=O)[C@@]23CCC(=O)N2c2ccccc2C(=O)N3C)c1,84,-11.29
O=c1[nH]cccc1S(=O)(=O)N1CCN(c2ccccc2)CC1,-8,0.92
Cc1ccccc1-c1cnc(Oc2ccc(C(=O)NCCC(C)C)cc2)nc1,-7,0.88
CC[C@@H](CO)NC(=O)NCc1snnc1C(C)C,0,0.07
COc1ncc(-c2nc(-c3ccccc3F)no2)c(C)n1,-4,0.43
Cc1nnc(N2CCOCC2)c2nn(-c3ccccc3Cl)c(C)c12,-34,4
CC(=O)N[C@@H]1CN(C(=O)CCc2nc3ccccc3[nH]2)C[C@H]1CO,-4,0.64
Cn1c(C2CCN(C(=O)c3ccnnc3)CC2)nc2ccccc21,-13,2.46
COc1ccc(OCc2nc(CCN(C)S(=O)(=O)c3ccc(C(C)C)cc3)no2)cc1,-4,0.37
CCc1ccc(OCc2nnc(C3CCC3)n2C)c(OC)c1,-6,0.89
Cc1ccc(C(=O)NCc2ccc(N(C)c3ccccc3)nc2)c(=O)[nH]1,-1,0.13
CC(C)C(CNC1CCCOCC1)ONC(=O)OC(C)(C)C (stereo not given),-7,0.98
COc1ccccc1N1C(=O)[C@@H]2Cc3c([nH]c4ccccc34)C(C)(C)N2C1=O,9,-1.74
CC(=O)N(Cc1ccc(NCc2cnc3ccnn3c2)cc1)C(C)C,-5,0.71
COCC1CN(C(=O)Nc2ccnc3cc(C)nn23)C1,-6,1.12
CCn1cc(S(=O)(=O)N[C@@H]2[C@@H]3CCO[C@@H]3[C@H]2N(C)C)cn1,13,-1.64
OC[C@H]1CCCN1c1ccc(Br)cn1,-10,1.5
N#Cc1ccnc(Nc2ccc3c(c2)OCO3)c1,-3,0.26
COc1cccc(C2(NC(=O)c3cnc(C)nc3C)CCOCC2)c1F,-17,2.81
Cc1cc(C)c2nc(C)cc(Nc3ccc(O)cc3)c2c1,85,-12.86
O=S(=O)(Cc1ccccc1)N1CCC(c2cc[nH]n2)CC1,-9,1.22
O=C(NCc1ccncc1)c1ccc(OCc2ccccc2)cc1,-4,0.57
CCc1csc(CNC(=O)c2ccc(N3CCCO3)nc2)n1,-16,1.46
O=C(c1ccccc1C(F)(F)F)N1CCc2ccccc2[C@H]1c1ccccc1F,3,-0.4
Cc1cc(C)c(-c2[nH]ncc2-c2nc3ccccc3s2)c(O)c1,-9,0.79
O=C(c1ccc(S(=O)(=O)N[C@H]2CCCc3ccccc32)s1)N1CCCC1,-10,1.94
